Experimental findings from the supplement of paper PMC3334620 are described below.

The full ranking holds about 33,000 sequences; the median of “E-score (-0.5 to 0.5)” is about -0.032, and the highest 2% start at about 0.36. The list shows a part of the results.

The test has as its target T1, Sko1 (UniProt Q02100).
T1 sequence: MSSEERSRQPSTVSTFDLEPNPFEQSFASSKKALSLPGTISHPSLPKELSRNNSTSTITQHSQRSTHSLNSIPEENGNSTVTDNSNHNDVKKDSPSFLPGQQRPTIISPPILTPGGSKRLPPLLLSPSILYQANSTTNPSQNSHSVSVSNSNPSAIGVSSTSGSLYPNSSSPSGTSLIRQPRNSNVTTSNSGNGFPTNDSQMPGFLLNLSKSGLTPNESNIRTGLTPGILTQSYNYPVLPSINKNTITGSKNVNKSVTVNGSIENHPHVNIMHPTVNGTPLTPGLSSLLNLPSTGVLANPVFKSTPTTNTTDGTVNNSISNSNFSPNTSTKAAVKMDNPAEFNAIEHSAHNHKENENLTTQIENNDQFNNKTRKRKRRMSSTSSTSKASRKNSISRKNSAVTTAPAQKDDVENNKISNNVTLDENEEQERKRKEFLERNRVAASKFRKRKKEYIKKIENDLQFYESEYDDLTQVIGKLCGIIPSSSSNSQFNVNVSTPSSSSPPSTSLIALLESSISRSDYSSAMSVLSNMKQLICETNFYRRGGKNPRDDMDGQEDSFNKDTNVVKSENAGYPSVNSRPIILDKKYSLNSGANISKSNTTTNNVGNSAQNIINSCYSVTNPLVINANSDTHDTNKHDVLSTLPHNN
Nature of the test: PBM E-score (8-mer binding enrichment) (E-score (-0.5 to 0.5)); higher = stronger / more preferred TF binding; most listed sequences are background and not binding sites. The conditions noted are these: protein concentration: 200 nM; construct: GST-full length. In outline: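 Each ungapped eight-base word and its reverse complement, pooled, received an E-score from the Universal PBM Analysis Suite. Underlying scans, normalised with masliner, recorded fluorescent anti-GST bound to GST-tagged yeast transcription factors. These were applied at about 100-200 nM to universal all-10-mer Agilent arrays double-stranded by primer extension.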
For GAGGTATC, the “PBM E-score” value is -0.238.
As to ATACTGAC, the “PBM E-score” value was 0.181.
For TCGAACGA, the “PBM E-score” value was 0.0001.
On to ACCCATCC, for which the “PBM E-score” value was -0.0997.
As for AGCACTTC, the figure is 0.0331.
The figure for GAGCAATA is 0.0306; for AAGTGGGG it is -0.268.
The figure for CATTAGTA is 0.17; for TCGATAGA it is 0.0307.
Take TCATCAAA: the “PBM E-score” value turned out to be 0.0321.
The figure for CACATCTC is -0.0743; for TCGTTAAA it is 0.00692.
As for ACTCATCA, the figure is 0.0512; as for ACCGTTAT, 0.00038; as for AGGCACCA, -0.112.
The figure for AATCGATA is 0.178.
For the sequence CCTCCAAG, the “PBM E-score” value is -0.279.
As for GAACACCA, the figure is -0.0562.
The figure for ATTAACAA is 0.276; for AGAGCCCG it is -0.0702.
As for ACGCCTAC, the figure is 0.0661.
AATAGTTA: the “PBM E-score” value is 0.0933.
As for GAATGACC, the figure is -0.0498; as for CCTTCCGC, -0.2.
Regarding GTCTCGTA, the “PBM E-score” value turned out to be 0.0629.
The figure for GAGGATCC is -0.167; for ACACATGC it is -0.0403.
Consider CTCAAGCA, for which the “PBM E-score” value is -0.0662.
The figure for AATCATGC is -0.0174.
The figure for ATCACCTA is 0.0925; for TAAACAGA it is 0.104.
With CATTCTGC, the “PBM E-score” value is -0.0569.
The figure for AAGTGGAG is -0.0639; for ATCCGTTC it is -0.0953; for AATACAAT it is 0.168.
As for AACGGTGA, the “PBM E-score” value is -0.158.
With CACGACGA, the “PBM E-score” value was found to be 0.0235.
Turning to ATGAGATC, the “PBM E-score” value was 0.103.
As for CAAATTAA, the figure is 0.143.
Regarding CAAAACGA, the “PBM E-score” value was 0.101.
As for AACCAATG, the figure is -0.00752; as for GCGTATGA, 0.337; as for AATTATAG, 0.0801.
For the sequence AAGCCAAC, the “PBM E-score” value was -0.0157.
As for ATCAACAT, the “PBM E-score” value was 0.285.
As for AGGTAAGA, the figure is 0.0248; as for CTAGCGAG, -0.204.
As for CAGCGTGC, the figure is -0.0976; as for TGCCTCCA, -0.159.
ATTTTCAC: the “PBM E-score” value worked out at 0.0809.
The figure for CCAGTCCC is -0.24; for TTCGTCAA it is 0.297; for CCCCATGC it is -0.112.
The figure for AAGAACGT is 0.344; for CTACTATC it is -0.0548.
As for ATCAGTAC, the “PBM E-score” value stood at 0.121.
As for ACGGGCAA, the figure is -0.0707; as for CAGACCCG, -0.0876.
As for CAATTCAG, the figure is -0.167; as for GTCTAAAC, 0.0367; as for CGATCGAC, 0.083.
The figure for ATTCAATA is 0.278; for TAGCATGA it is 0.113; for TTCATCAA it is 0.107.
Take TATTCTAA: the “PBM E-score” value amounted to 0.15.
AGGATAAG: the “PBM E-score” value was -0.114.
As for CGAATATC, the “PBM E-score” value came to 0.0899.
CACCTGAG: the “PBM E-score” value is -0.177.
The figure for GCGGCTAA is -0.112.
The figure for TGGGTGAA is 0.0602; for GACCAGGA it is -0.197.
The figure for ACAGGAAT is 0.00126; for CGCTCAAG it is -0.192.
As for TCCCAACA, the “PBM E-score” value is -0.0541.
As for CCTCAACA, the figure is 0.121; as for ACCCAGTC, -0.183.
Turning to CGAAGCAA, the “PBM E-score” value amounted to 0.086.
The figure for CAGTTCCA is -0.192.
The figure for CACACTGC is -0.185; for AGTCCTAT it is -0.096.
As for CGAACCAA, the figure is 0.0938; as for AAAGTTCG, 0.108.
GGACTTAA: the “PBM E-score” value was -0.119.
The figure for CCCGCGAG is -0.232; for AAAATCAC it is 0.124.
As for AAGGTGAA, the figure is -0.0608.
